± gives the standard error. Variants at the background level are over-represented here.
B1: glmS ribozyme (parent)
chain: AUAAAAGCGCCAGAACUACAGAAAUGUAGUUGACGAGGAGGAGGUUUAUCGAAUUUUCGGCGGAUGCCUCCAAA

How the values were obtained:
Conditions in all cases: with glucosamine-6-phosphate
glucosamine-6-phosphate [1] = variants of: B1; assay: self-cleavage kobs at 640 uM GlcN6P; higher = faster cleavage; RNA array
In short: (§1)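 Weighted Michaelis–Menten fits across concentrations supplied kcat and KM, based on kobs from one- or two-exponential decay fits to normalised per-tile medians. The data came from barcoded ribozyme variants transcribed in situ by E. coli RNA polymerase on sequenced MiSeq chips and tracked at 37 °C by a hybridised Cy3 probe. Glucosamine-6-phosphate (40 μM to 10 mM) in HEPES/KCl/Mg(OAc)2 buffer was flowed in.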

glucosamine-6-phosphate [2] = variants of: B1; assay: self-cleavage kobs at 2500 uM GlcN6P; higher = faster cleavage; RNA array
In short: as §1

glucosamine-6-phosphate [3] = variants of: B1; assay: self-cleavage kobs at 10000 uM GlcN6P; higher = faster cleavage; RNA array
In short: as §1

glucosamine-6-phosphate [4] = variants of: B1; assay: self-cleavage kobs at 160 uM GlcN6P; higher = faster cleavage; RNA array
In short: as §1

Variant | self-cleavage kobs at 640 uM GlcN6P (glucosamine-6-phosphate [1]) | self-cleavage kobs at 2500 uM GlcN6P (glucosamine-6-phosphate [2]) | self-cleavage kobs at 10000 uM GlcN6P (glucosamine-6-phosphate [3]) | self-cleavage kobs at 160 uM GlcN6P (glucosamine-6-phosphate [4])
G38C A42G U49G A52G G63C | < 1e-05 s⁻¹ | < 1e-05 s⁻¹ | – | –
G38C G40U | < 1e-05 s⁻¹ | < 1e-05 s⁻¹ | < 1e-05 s⁻¹ | –
G38C G43U U69A | < 1e-05 s⁻¹ | < 1e-05 s⁻¹ | – | –
G38C G44U G51C A52C C71U | < 1e-05 s⁻¹ | – | – | –
G38C G44U U55A C68G | < 1e-05 s⁻¹ | – | – | –
G38C G59U | < 1e-05 s⁻¹ | – | – | < 1e-05 s⁻¹
G38C U55A | < 1e-05 s⁻¹ | – | – | < 1e-05 s⁻¹
G38C U57G G59A | < 1e-05 s⁻¹ | < 1e-05 s⁻¹ | – | < 1e-05 s⁻¹
G38U A39G G60C C68A | < 1e-05 s⁻¹ | < 1e-05 s⁻¹ | – | –
G38U A52G U56A G60U | < 1e-05 s⁻¹ | – | – | –
G38U G41U G43C G51A G66A | < 1e-05 s⁻¹ | – | – | –
A39C A42U G44U U54A | < 1e-05 s⁻¹ | < 1e-05 s⁻¹ | – | –
A39C C61G | < 1e-05 s⁻¹ | < 1e-05 s⁻¹ | < 1e-05 s⁻¹ | < 1e-05 s⁻¹
A39C G43A G66A | < 1e-05 s⁻¹ | – | – | –
A39C U47G | 0.000286 ± 5.5e-05 s⁻¹ | – | – | –
A39G A48U | 0.000139 ± 3.1e-05 s⁻¹ | 0.000436 ± 8.7e-05 s⁻¹ | 0.000774 ± 0.00011 s⁻¹ | –
A39G G40C | 4.2e-05 ± 1.4e-05 s⁻¹ | 0.000101 ± 1.8e-05 s⁻¹ | 8.35e-05 ± 1.4e-05 s⁻¹ | –
A39G G40U C58G | < 1e-05 s⁻¹ | – | – | –
A39G G44C | 0.000101 ± 1.9e-05 s⁻¹ | 0.000327 ± 6.4e-05 s⁻¹ | 0.000394 ± 4.8e-05 s⁻¹ | –
A39G G60U G66U C67A | < 1e-05 s⁻¹ | – | < 1e-05 s⁻¹ | –
A39U U49C C68G | < 1e-05 s⁻¹ | < 1e-05 s⁻¹ | < 1e-05 s⁻¹ | –
G40A C50U G51A G63A U65A | < 1e-05 s⁻¹ | < 1e-05 s⁻¹ | – | < 1e-05 s⁻¹
G40A G41A | 6.83e-05 ± 1.2e-05 s⁻¹ | 0.000163 ± 2.3e-05 s⁻¹ | – | –
G40A G41C | 4.87e-05 ± 1.8e-05 s⁻¹ | 0.000179 ± 4.9e-05 s⁻¹ | 0.000123 ± 1.4e-05 s⁻¹ | –
G40A G66U | 6.02e-05 ± 1.2e-05 s⁻¹ | 0.000124 ± 2e-05 s⁻¹ | 0.000203 ± 3.5e-05 s⁻¹ | –
G40A U57G C67G | < 1e-05 s⁻¹ | < 1e-05 s⁻¹ | – | –

Variant | self-cleavage kobs at 640 uM GlcN6P (glucosamine-6-phosphate [1]) | self-cleavage kobs at 2500 uM GlcN6P (glucosamine-6-phosphate [2]) | self-cleavage kobs at 10000 uM GlcN6P (glucosamine-6-phosphate [3]) | self-cleavage kobs at 160 uM GlcN6P (glucosamine-6-phosphate [4])
G40C A64C U65A C67A | < 1e-05 s⁻¹ | – | – | –
G40C G44U | < 1e-05 s⁻¹ | < 1e-05 s⁻¹ | – | < 1e-05 s⁻¹
G40C G51C C70A | < 1e-05 s⁻¹ | < 1e-05 s⁻¹ | – | < 1e-05 s⁻¹
G40C U47C C68G | < 1e-05 s⁻¹ | – | – | –
G40U U54A C61A | < 1e-05 s⁻¹ | < 1e-05 s⁻¹ | < 1e-05 s⁻¹ | –
G41A G51C A64C | < 1e-05 s⁻¹ | – | – | –
G41C A42C C68A | < 1e-05 s⁻¹ | < 1e-05 s⁻¹ | – | < 1e-05 s⁻¹
G41C G63U | < 1e-05 s⁻¹ | – | < 1e-05 s⁻¹ | –
G41U A52C C68U | < 1e-05 s⁻¹ | < 1e-05 s⁻¹ | – | –
G41U C58U C67A | < 1e-05 s⁻¹ | < 1e-05 s⁻¹ | – | –
A42C G62U C71G | < 1e-05 s⁻¹ | < 1e-05 s⁻¹ | – | –
A42U A52C G60C G63U C67A C70G | < 1e-05 s⁻¹ | – | – | –
A42U C50U C70G | < 1e-05 s⁻¹ | < 1e-05 s⁻¹ | – | –
A42U G60C | < 1e-05 s⁻¹ | – | < 1e-05 s⁻¹ | < 1e-05 s⁻¹
G43A A53G G60U | < 1e-05 s⁻¹ | < 1e-05 s⁻¹ | – | –
G43A G66C | < 1e-05 s⁻¹ | – | – | < 1e-05 s⁻¹
G43A U46A A48C G60A | < 1e-05 s⁻¹ | < 1e-05 s⁻¹ | – | –
G43C A53U | < 1e-05 s⁻¹ | < 1e-05 s⁻¹ | < 1e-05 s⁻¹ | < 1e-05 s⁻¹
G43C U45A C67U | 0.000977 ± 0.00034 s⁻¹ | 0.00269 ± 0.00071 s⁻¹ | – | 0.000282 ± 9.2e-05 s⁻¹
G43C U56A | < 1e-05 s⁻¹ | < 1e-05 s⁻¹ | < 1e-05 s⁻¹ | < 1e-05 s⁻¹
G43U G59A G60A C71A | < 1e-05 s⁻¹ | < 1e-05 s⁻¹ | – | –
G44A G51U A64U | < 1e-05 s⁻¹ | < 1e-05 s⁻¹ | – | < 1e-05 s⁻¹
G44A U65C | < 1e-05 s⁻¹ | – | – | –
G44C G60U | < 1e-05 s⁻¹ | < 1e-05 s⁻¹ | < 1e-05 s⁻¹ | < 1e-05 s⁻¹
G44C U65A C70G | < 1e-05 s⁻¹ | < 1e-05 s⁻¹ | < 1e-05 s⁻¹ | –
G44C U69A | < 1e-05 s⁻¹ | < 1e-05 s⁻¹ | < 1e-05 s⁻¹ | < 1e-05 s⁻¹

Reference: the supplement of paper PMC7125110
